# Screen size: about 310,000 compounds; about 14,000 (4.5%) showed an effect of 50% or more. Effects have a minus sign here. The list shows a part of the results.
# Biological target: human ether-à-go-go-related gene (hERG) potassium channel (human, UniProt Q12809)
# Assay: primary screen, population patch clamp on CHO cells stably expressing hERG
# 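Note: peak tail current of the secondary pulse compared with the same well before compound.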
# human ether-à-go-go-related gene (hERG) potassium channel, sequence (Q12809 whole entry, looked up): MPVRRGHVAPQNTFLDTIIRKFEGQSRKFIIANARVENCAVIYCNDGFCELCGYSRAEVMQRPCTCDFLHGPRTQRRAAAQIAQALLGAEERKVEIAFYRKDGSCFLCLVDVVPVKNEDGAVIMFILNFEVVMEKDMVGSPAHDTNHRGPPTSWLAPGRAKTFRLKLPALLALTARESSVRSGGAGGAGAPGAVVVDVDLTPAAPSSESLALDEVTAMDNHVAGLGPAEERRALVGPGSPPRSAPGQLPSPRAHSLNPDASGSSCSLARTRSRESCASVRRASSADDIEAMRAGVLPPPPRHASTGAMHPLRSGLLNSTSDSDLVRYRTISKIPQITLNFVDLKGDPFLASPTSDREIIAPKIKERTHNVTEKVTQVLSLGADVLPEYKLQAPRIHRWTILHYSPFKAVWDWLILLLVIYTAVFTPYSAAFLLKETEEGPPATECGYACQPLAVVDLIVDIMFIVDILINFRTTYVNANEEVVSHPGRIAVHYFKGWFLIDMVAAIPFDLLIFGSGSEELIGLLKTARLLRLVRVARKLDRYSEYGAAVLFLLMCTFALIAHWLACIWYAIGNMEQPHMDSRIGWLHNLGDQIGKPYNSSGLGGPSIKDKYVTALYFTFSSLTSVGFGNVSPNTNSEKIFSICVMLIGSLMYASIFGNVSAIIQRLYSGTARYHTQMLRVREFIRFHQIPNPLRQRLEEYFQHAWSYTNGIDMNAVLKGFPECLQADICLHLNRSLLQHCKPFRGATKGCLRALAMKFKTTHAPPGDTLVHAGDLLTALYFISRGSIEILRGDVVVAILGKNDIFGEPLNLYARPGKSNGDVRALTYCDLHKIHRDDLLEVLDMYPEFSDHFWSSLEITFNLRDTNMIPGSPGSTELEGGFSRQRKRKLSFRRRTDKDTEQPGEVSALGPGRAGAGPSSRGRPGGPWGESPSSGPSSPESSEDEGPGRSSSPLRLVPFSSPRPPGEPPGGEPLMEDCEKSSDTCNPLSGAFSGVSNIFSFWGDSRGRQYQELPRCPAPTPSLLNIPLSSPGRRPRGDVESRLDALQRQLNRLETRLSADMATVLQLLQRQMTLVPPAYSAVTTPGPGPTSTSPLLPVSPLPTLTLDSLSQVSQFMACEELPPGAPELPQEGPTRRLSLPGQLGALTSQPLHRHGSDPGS
row,Compound,"hERG current change (%, negative = inhibition) at 10uM [%]"
1,Nc1c(-c2ccc(F)cc2)cnc2ncnn12,13.7
2,CCN(CC)C(=O)COCc1cc(-c2ccc3c(c2)OCO3)on1,5.04
3,CCOc1ccc(C(C)=O)cc1COC(=O)c1cnc(Cl)c(Cl)c1,3.09
4,CCOC(=O)N1CCN(S(=O)(=O)c2ccc3c(c2)CCN3C(=O)C2CCC2)CC1,-6.37
5,Cc1cc(C)cc(CC2CC(=O)N(c3ccc4c(c3)OCCO4)C2=O)c1 (centres unmarked),-13
6,Cc1cc([N+](=O)[O-])ccc1NC(=S)NC1CCCC1,6.67
7,CC(C)(C)n1cnc2cc(NC(=O)c3ccccc3)ccc21,-9.28
8,CCn1cc(C(=O)OC)c(=O)c2cc(S(=O)(=O)N(C)C3CCCCC3)ccc21,-28.4
9,CCOc1cc(C2NC(=O)NC(c3ccccc3)=C2C(C)=O)ccc1OC(C)=O (centres unmarked),23.9
10,Cc1cc(C)cc(NC(=O)CSc2nnc(CNC(=O)c3ccco3)n2C)c1,-19.4
11,O=C1CCCc2c1cc(-c1ccccc1)n2-c1ccc(O)cc1,-4.94
12,COc1cc(CN2CCNC(=O)C2CC(=O)NC2CCCCC2)cc(OC)c1 (centres unmarked),5.43
13,CC(=O)N1c2ccc(S(=O)(=O)N3CCCC(C(=O)Nc4ccc(F)cc4)C3)cc2CC1C (centres unmarked),-21.2
14,COc1cccc(CN2CCNC(=O)C2CC(=O)N(C)CCc2ccccn2)c1OC (centres unmarked),26.9
15,CCOC(=O)N1CCC(NC(=O)Cn2c3c(c(-c4ccccc4Cl)cc2=O)CCC3)CC1,-8.61
16,O=C(NC(=S)Nc1ccc(S(=O)(=O)Nc2nccs2)cc1)c1ccccc1F,19.6
17,Cc1cc(C)nc(Nc2n[nH]c(-c3ccccc3C)n2)n1,-10.5
18,CCOC(=O)CCc1c(C)nc(SCc2ccc(C(=O)O)cc2)c(C#N)c1C,-11.7
19,CCOC(=O)C1CCN(c2c(NCCCN(CC)Cc3ccccc3)c(=O)c2=O)CC1,-9.32

row,Compound,"hERG current change (%, negative = inhibition) at 10uM [%]"
1,CC(OC(=O)CNC(=O)c1cccs1)C(=O)Nc1ccc(S(N)(=O)=O)cc1 (centres unmarked),2.3
2,COc1ccc(NC(=O)CCN2CCN(S(=O)(=O)c3cc(Cl)ccc3Cl)CC2)cc1,-12.8
3,O=C(NCC1CCCCC1)c1cc(S(=O)(=O)N2CCOCC2)ccc1F,-2.95
4,CN(C)CCNc1cnn(-c2ccccc2)c(=O)c1Cl,14.2
5,Cc1ccc(NC(=O)CSc2cccc3cccnc23)c(C)c1,10.7
6,Nc1cccc(-n2cccc2)c1,18.5
7,CCCn1c2ccc(F)cc2c2nnc(SCCN3CCCCC3)nc21,-64.2
8,O=C(Cn1nc2n(c1=O)-c1ccccc1SC2)N/N=C/c1cccnc1,-14.3
9,COc1ccc(-c2ccc(CCC(=O)O)n2-c2ccc(O)cc2)cc1,13.3
10,CCC(C)(C(=O)NC1CCCC1)N(C(=O)c1cnccn1)c1ccccc1 (centres unmarked),2.05
11,CCC(=O)c1ccc(-c2ccccc2)cc1,9.31
12,CSc1nnc(-c2ccc(Cl)cc2Cl)o1,1.62
13,Cc1ccc(S(=O)(=O)c2c(C)nn(C(C)(C)C)c2OC(=O)C2CCCC2)cc1,-4.21
14,COc1cccc(-n2nnnc2SCC(=O)NCCc2ccccc2)c1,-20.8
15,O=C1C(C23CC4CC(CC(C4)C2)C3)C(=O)N(c2ccccc2)N1c1ccccc1,-8.29
16,CCCCNc1cc(F)nc(N)n1,-9.45
17,COc1ccc(CCNC(=O)COc2ccc(S(=O)(=O)N3CCOCC3)cc2C)cc1,-22.8
18,Cc1ccc(S(=O)(=O)N2CCOCC2)cc1C(=O)OCc1nnc(-c2ccccc2)o1,-42.1
19,C/C(=N\NC(=S)NCCc1ccccc1)c1ccc(Cl)cc1,14.3

row,Compound,"hERG current change (%, negative = inhibition) at 10uM [%]"
1,COc1cc2c(c(OC)c1OC)-c1ccc(C(=O)O)cc1[C@@H](NC(C)=O)CC2,2.46
2,Cn1c(=O)c2c(ncn2CC(COCc2ccccc2)OCc2ccccc2)n(C)c1=O (centres unmarked),-12.1
3,COc1cc(OC)cc(C(=O)Nc2nc(-c3ccccc3)c(-c3ccccc3)o2)c1,12.3
4,CCOC(=O)Cc1nnc(NC(=O)CSc2nc3ccccc3[nH]2)s1,5.14
5,Cc1ccc(S(=O)(=O)N2CCCC2C(=O)OCc2ccco2)cc1 (centres unmarked),-27.8
6,O=C(Cn1cccc1C(=O)c1ccccc1)NCc1ccc2c(c1)OCO2,-2.12
7,CCOC(=O)[C@H]1[C@H]2COc3cc(OC)ccc3[C@@H]2N2C(=O)c3cc(C)ccc3NC(=O)[C@@]12C,2.3
8,Cl.Nc1ncnc2c1CCC2,8.69
9,O=C(CC(c1ccccc1)c1cc(Br)ccc1O)NCc1ccco1 (centres unmarked),-20
10,O=C(Nc1nccs1)c1cc(-c2ccco2)nc2ccccc12,3.14
11,Cc1ccc(C(OCCN(C)C)c2cccc(C(F)(F)F)c2)cc1.O=C(O)/C=C\C(=O)O (centres unmarked),-58.6
12,Cc1ccccc1OCC(=O)OC(C)C(=O)NC1CCCC1 (centres unmarked),2.04
13,CCOc1ccc2c(c1)C(c1ccc(C)cc1)=NNC(c1ccc(C)cc1)=N2,-16.6
14,O=C(Nc1ccccc1C(F)(F)F)N1CCCC1c1cccnc1 (centres unmarked),15.2
15,CN1C(CC(=O)Nc2ccc(Br)cc2)c2ccccc2CC1(C)C (centres unmarked),-38.2
16,CC(=O)c1sc(NC(=O)c2cnc(Cl)c(Cl)c2)nc1C,13.3
17,C/C(=N/NC(=O)c1cccc(N2CCCC2=O)c1)c1ccc(Br)cc1,-3.22
18,CCCCn1nc(C(=O)NCc2ccccc2CN2CCCC2)c2ccccc2c1=O,-64.6
